“And” between values parts separate entries of the source, which are not always exact repeats. Equal values may be shown once.
How the values were obtained:
[1] = biological target: T1, human 4-1BB (CD137) on cells (human, UniProt Q07011 24-255); assay: cell-based or functional assay
human FAP on cells [2] = biological target: T2, human FAP on cells (human, UniProt Q12884 1-760); assay: cell-based or functional assay
human FAP on cells [3] = biological target: T2, human FAP on cells; assay: flow cytometry on FAP-expressing MV-3 cells, PE anti-human IgG detection (FIGS. 9A and B)
human FAP on cells [4] = biological target: T2, human FAP on cells; assay: flow cytometry on FAP-expressing WM-266-4 cells, PE anti-human IgG detection (FIGS. 9A and B)
[5] = biological target: T1, human 4-1BB (CD137) on cells; assay: flow cytometry on activated human PBMCs (anti-CD3/anti-CD28), gated on CD4+ T cells, PE anti-human IgG detection
[6] = biological target: T1, human 4-1BB (CD137) on cells; assay: flow cytometry on activated human PBMCs (anti-CD3/anti-CD28), gated on CD8+ T cells, PE anti-human IgG detection
[7] = biological target: T1, human 4-1BB (CD137) on cells; assay: flow cytometry on activated human PBMCs (anti-CD3/anti-CD28), gated on gamma-delta T cells, PE anti-human IgG detection
[8] = biological target: T3, monomeric human 4-1BB avi His (human); assay: SPR (Biacore T200, 25 C): construct captured on anti-human Fc antibody, human 4-1BB avi His 2.7-2000 nM as analyte, 1:1 Langmuir fit, average of three experiments
T3 construct: The entry holds the ectodomain together with the avi tag and the His tag; also called human 4-1BB His; Recombinant human 4-1BB avi his
Protocol: All SPR experiments were performed on a Biacore T200 at 25° C. with HBS-EP as running buffer (0.01 M HEPES pH 7.4, 0.15 M NaCl, 3 mM EDTA, 0.005% Surfactant P20, Biacore, Freiburg/Germany).
The dissociation was monitored for 120 seconds. Bulk refractive index differences were corrected for by subtracting the response obtained on reference flow cell.

human CD19 on cells = biological target: T4, human CD19 on cells (human, UniProt P15391 20-556); assay: flow cytometry on CD19+ WSU-DLCL2 cells, PE anti-human IgG detection
T4 construct: also called CD19-expressing tumor cells WSU-DLCL2; OCI-Ly18
T4 sequence: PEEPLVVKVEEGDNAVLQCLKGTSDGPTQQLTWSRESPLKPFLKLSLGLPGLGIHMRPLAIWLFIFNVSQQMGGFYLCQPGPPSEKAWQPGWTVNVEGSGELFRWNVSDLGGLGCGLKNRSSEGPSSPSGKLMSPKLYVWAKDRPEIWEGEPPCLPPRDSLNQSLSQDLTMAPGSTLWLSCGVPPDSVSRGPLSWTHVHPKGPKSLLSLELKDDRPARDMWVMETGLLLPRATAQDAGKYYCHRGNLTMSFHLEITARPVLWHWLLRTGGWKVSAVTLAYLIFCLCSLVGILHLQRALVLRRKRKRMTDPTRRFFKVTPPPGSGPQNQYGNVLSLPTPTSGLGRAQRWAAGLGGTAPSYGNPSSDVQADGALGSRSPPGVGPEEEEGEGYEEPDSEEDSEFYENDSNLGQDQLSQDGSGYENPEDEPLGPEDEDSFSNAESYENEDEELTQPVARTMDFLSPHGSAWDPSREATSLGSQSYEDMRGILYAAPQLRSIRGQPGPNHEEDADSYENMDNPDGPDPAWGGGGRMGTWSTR

[9] = biological target: T1, human 4-1BB (CD137) on cells; assay: flow cytometry on activated human PBMCs (anti-CD3/anti-CD28 beads, 48 h), gated on CD4 T cells
[10] = biological target: T1, human 4-1BB (CD137) on cells; assay: flow cytometry on activated human PBMCs (anti-CD3/anti-CD28 beads, 48 h), gated on CD8 T cells
[11] = biological target: T3, monomeric human 4-1BB avi His; assay: SPR (Biacore T200, 25 C): construct captured on anti-human Fc antibody, human 4-1BB avi His as analyte; second KD column

B1: monovalent FAP(4B9)-targeted 4-1BB ligand (71-248) trimer-containing Fc (kih) fusion antigen binding molecule (Construct 2.11) (Fc fusion)
chain: DKTHTCPPCPAPEAAGGPSVFLFPPKPKDTLMISRTPEVTCVVVDVSHEDPEVKFNWYVDGVEVHNAKTKPREEQYNSTYRVVSVLTVLHQDWLNGKEYKCKVSNKALGAPIEKTISKAKGQPREPQVCTLPPSRDELTKNQVSLSCAVKGFYPSDIAVEWESNGQPENNYKTTPPVLDSDGSFFLVSKLTVDKSRWQQGNVFSCSVMHEALHNHYTQKSLSLSPGGGGGSGGGGSREGPELSPDDPAGLLDLRQGMFAQLVAQNVLLIDGPLSWYSDPGLAGVSLTGGLSYKEDTKELVVAKAGVYYVFFQLELRRVVAGEGSGSVSLALHLQPLRSAAGAAALALTVDLPPASSEARNSAFGFQGRLLHLSAGQRLGVHLHTEARARHAWQLTQGATVLGLFRVTPEIPAGLGGGGSGGGGSREGPELSPDDPAGLLDLRQGMFAQLVAQNVLLIDGPLSWYSDPGLAGVSLTGGLSYKEDTKELVVAKAGVYYVFFQLELRRVVAGEGSGSVSLALHLQPLRSAAGAAALALTVDLPPASSEARNSAFGFQGRLLHLSAGQRLGVHLHTEARARHAWQLTQGATVLGLFRVTPEIPAGL
heavy: EVQLLESGGGLVQPGGSLRLSCAASGFTFSSYAMSWVRQAPGKGLEWVSAIIGSGASTYYADSVKGRFTISRDNSKNTLYLQMNSLRAEDTAVYYCAKGWFGGFNYWGQGTLVTVSSASTKGPSVFPLAPSSKSTSGGTAALGCLVKDYFPEPVTVSWNSGALTSGVHTFPAVLQSSGLYSLSSVVTVPSSSLGTQTYICNVNHKPSNTKVDKKV[human IgG1 Fc with changes omitted here]GGGGSGGGGSREGPELSPDDPAGLLDLRQGMFAQLVAQNVLLIDGPLSWYSDPGLAGVSLTGGLSYKEDTKELVVAKAGVYYVFFQLELRRVVAGEGSGSVSLALHLQPLRSAAGAAALALTVDLPPASSEARNSAFGFQGRLLHLSAGQRLGVHLHTEARARHAWQLTQGATVLGLFRVTPEIPAGL
light: EIVLTQSPGTLSLSPGERATLSCRASQSVTSSYLAWYQQKPGQAPRLLINVGSRRATGIPDRFSGSGSGTDFTLTISRLEPEDFAVYYCQQGIMLPPTFGQGTKVEIKRTVAAPSVFIFPPSDEQLKSGTASVVCLLNNFYPREAKVQWKVDNALQSGNSQESVTEQDSKDSTYSLSSTLTLSKADYEKHKVYACEVTHQGLSSPVTKSFNRGEC
notes: Human IgG1 Fc knob-into-hole with P329G, L234A, L235A; one FAP(4B9) Fab on the knob chain; split trimeric human 4-1BBL fused to the C-termini of the Fc chains
- EC50 [nM] of NFkB-activation-induced Luciferase activity-curves, on 3T3-huFAP [1]: 0.08 nM
- EC50 [nM] of NFkB-activation-induced Luciferase activity-curves, on MV-3 [1]: 0.18 nM
- EC50 [nM] of CD25-upregulation on CD8+ T cells (human FAP on cells [2]): 0.07 nM
- EC50 [nM] of CD137 (4-1BB)-upregulating on CD8+ T cells (human FAP on cells [2]): 0.11 nM
- EC50 (human FAP on cells [3]): 0.82 nM
- EC50 (human FAP on cells [4]): 1.16 nM
- EC50 [5]: 0.28 nM
- EC50 [6]: 0.41 nM
- EC50 [7]: 0.36 nM
- Kd [8]: 347 nM
- koff [8]: 0.0263 s⁻¹
- kon [8]: 76200 M⁻¹ s⁻¹

B2: monovalent CD19 (8B8-2B11)-targeted 4-1BB ligand trimer-containing Fc (kih) fusion antigen binding molecule (Construct 4.11) (Fc fusion)
chain: B1 chain
heavy: QVQLVQSGAEVKKPGASVKVSCKASGYTFTDYIMHWVRQAPGQGLEWMGYINPYNDGSKYTEKFQGRVTMTSDTSISTAYMELSRLRSDDTAVYYCARGTYYYGPQLFDYWGQGTTVTVSSASTKGPSVFPLAPSSKSTSGGTAALGCLVKDYFPEPVTVSWNSGALTSGVHTFPAVLQSSGLYSLSSVVTVPSSSLGTQTYICNVNHKPSNTKVDKKV[human IgG1 Fc with changes omitted here]GGGGSGGGGSREGPELSPDDPAGLLDLRQGMFAQLVAQNVLLIDGPLSWYSDPGLAGVSLTGGLSYKEDTKELVVAKAGVYYVFFQLELRRVVAGEGSGSVSLALHLQPLRSAAGAAALALTVDLPPASSEARNSAFGFQGRLLHLSAGQRLGVHLHTEARARHAWQLTQGATVLGLFRVTPEIPAGL
light: DIVMTQTPLSLSVTPGQPASISCKSSQSLETSTGTTYLNWYLQKPGQSPQLLIYRVSKRFSGVPDRFSGSGSGTDFTLKISRVEAEDVGVYYCLQLLEDPYTFGQGTKLEIKRTVAAPSVFIFPPSDEQLKSGTASVVCLLNNFYPREAKVQWKVDNALQSGNSQESVTEQDSKDSTYSLSSTLTLSKADYEKHKVYACEVTHQGLSSPVTKSFNRGEC
notes: Human IgG1 Fc knob-into-hole with P329G, L234A, L235A; one CD19(8B8-2B11) Fab on the knob chain
- EC50 (human CD19 on cells): 0.26 nM and 0.04 µg/mL
- EC50 [9]: 0.13 nM and 0.02 µg/mL
- EC50 [10]: 0.05 µg/mL and 0.32 nM
- KD [11]: 17.6 nM
- Kd [8]: 369 nM
- koff [8]: 0.0272 s⁻¹
- kon [8]: 73700 M⁻¹ s⁻¹
